Reference: PubChem BioAssay (NCI)
“And” between values parts separate entries of the source, which are not always exact repeats. Equal entries are not always repeated.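 1) Cells in 96-well plates. 2) Compound, 48 h, 5 concentrations. 3) Linear interpolation between surrounding doses. 4) Unreached endpoint = highest concentration. At the GI50, growth is halved. TGI is the concentration that stops growth completely.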 Peptide text beside a SMILES is read from it. * marks the point of attachment. Cbz = O=C(OCc1ccccc1)*

System: NCI-H322M lung
Assay: NCI anticancer screen, dose series, 48 h

Row | Structure (SMILES) | TGI | GI50 [µM]
1 | COc1cc(/C=C/C(=O)Oc2ccccc2)ccc1C(=O)O/C=C/c1ccccc1 | > 100 µM | –
2 | N#Cc1cc2c(cc1Cl)Sc1nnc(Nc3ccccc3)n1S2(=O)=O | 7.41 µM | –
3 | O=[N+]([O-])c1c(F)c(F)c2c(c1F)N(CCCCCl)c1ccccc1S2 | 19.7 µM | –
4 | CC1(C)N=C(N)N=C(N)N1c1cccc(OCCOc2cccc([N+](=O)[O-])c2)c1 | > 100 µM | 5.22
5 | Cc1ccc2c(c1)CC1(Cc3cccc(C)c3C1=O)C2=O (centres undefined) | > 100 µM | –
6 | C=CC1(CC[C@]2(c3ccc(OC)c(OC)c3)C=[N+]([O-])O[C@H](O[C@@H]3CCCC[C@H]3C(C)(C)c3ccccc3)C2)OCC(C)(C)CO1 | > 67 µM | –
7 | CCCCCCc1cc2cc(C(=O)Nc3ccc(F)cc3)c(=N)oc2cc1O | 73.7 µM | –
8 | CNC(C)C(O)c1ccc2oc3cc(=O)c4ccccc4c-3nc2c1 (centres undefined) | 29.7 µM | –
9 | CC1CC(Nc2ccc(Br)cc2)N(C(=O)c2ccc(Br)cc2)O1 (centres undefined) | > 10 µM | –
10 | Cc1cc(NCCCCNc2ccnc3cc(Cl)ccc23)nc(Nc2ccc(C(=O)N3CCCCC3)cc2)n1 | 6.77 µM | 2.08
11 | O=C1c2ccccc2OCC12OC21C=CC(Cl)=CC1 (centres undefined) | 79.4 µM | –
12 | NCCCn1c2c(c3ccccc3c1=O)C(=O)c1ccccc1-2 | 2.68 µM | 0.382
13 | N#CC(C#N)=C1CCCOc2c1ccc1ccccc21 | > 100 µM | > 100
14 | c1ccc2c3[nH]c(c2c1)=Nc1ccc(cc1)-c1nc2ccc(cc2o1)N=c1[nH]c(c2ccccc12)=Nc1ccc2nc(oc2c1)-c1ccc(cc1)N=3 | > 100 µM | –
15 | Cc1ccc(NC(=O)C(=O)C2C(=O)NC(=O)NC2=O)cc1C | > 100 µM | –
16 | Cn1c(=S)c2[nH]c(SCCCc3ccccc3)nc2n(C)c1=O | > 100 µM | –
17 | COc1cc(OC)c2sc(-c3ccc(-n4cncc4-c4cc(OC)c(OC)c(OC)c4)cc3)nc2c1 | > 100 µM | > 100
18 | O=[N+]([O-])c1ccc(Sc2c3ccccc3nc3ccccc23)cn1 | > 70.3 µM | –
19 | Cc1c(Cl)cccc1NC(=O)c1cccc([N+](=O)[O-])c1O | > 85.4 µM | –
20 | c1ccc2c(c1)OCCOCCOc1ccccc1OCCO2 | > 100 µM | –
21 | O=C(N[C@@H](Cc1coc2ccccc12)B(O)O)[C@@H]1C[C@H]2CC[C@@H]1O2 | > 100 µM | > 100

Row | Structure (SMILES) | TGI | GI50 [µM]
22 | O=Cc1ccc(-c2ccc(-c3ccc(CO)s3)o2)s1 | 99.8 µM | –
23 | O=C1C=CC(=CC=C2C=CN(CCCCCCCCCCC(=O)NCCCCCCCCCCCC(=O)O)C=C2)C=C1 | > 100 µM | –
24 | O=C1c2ccc3c4ccccc4n(-c4ccccc4)c3c2C(=O)N1c1ccc(Cl)cc1 | > 100 µM | –
25 | COC(=O)N[C@H](C(=O)NC(OCc1ccccc1)C1COC(C)(C)O1)C(C)O[Si](C)(C)C(C)(C)C (some centres undefined) | > 100 µM | –
26 | Cc1ccc2occ/c(=N\Nc3ccccc3)c2c1 | > 100 µM | –
27 | CC(=O)OC(CCC1(C)OC1COc1ccc(CCNC(=O)C=C(C)C)cc1)C(C)(C)OC(C)=O (centres undefined) | > 100 µM | –
28 | N[C@H](Cc1ccc2oc3cc(=O)c4ccccc4c-3nc2c1)C(=O)O | > 100 µM | –
29 | C=C(C)[C@@H]1CC[C@]2(C)[C@H](CC[C@@H]3[C@@H]([C@@](C)(O)CCC=C(C)C)CC[C@]32C)[C@@]1(C)CCC(=O)O | 30.9 µM | 16.2
30 | CC(=O)OCCOCNC(=S)N/N=C/c1ccc([N+](=O)[O-])s1 | > 100 µM | –
31 | O=C1C(Br)=CC2(C=C1Br)CCNC1=C2C(=O)c2ncccc2C1=O | 2.85 µM | –
32 | CC(=O)c1ccc2c(c1)C(=O)c1sc(C(C)=O)cc1C2=O | 23.4 µM and 11.5 µM | –
33 | CC12CCC(=O)N1c1cccnc1N2 (centres undefined) | > 100 µM | –
34 | CCOP(=O)(OCC)/C(C#N)=C/c1ccc(-c2cc(C(F)(F)F)cc(C(F)(F)F)c2)o1 | 26.2 µM | –
35 | C(=Nc1ccc2c(c1)Cc1ccccc1-2)c1ccccn1 | > 100 µM | –
36 | COc1cc(C(=O)O[C@H](C(N)=O)[C@]2(C)CO2)c2cccc(C)c2c1 | 3.49 µM | 0.409
37 | CCOC(=O)c1sc(NC(=O)COc2cccc(/C=C3\CCc4cc(OC)ccc4C3=O)c2)nc1C | > 100 µM | 31.2
38 | CC(=O)SC(C[N+](=O)[O-])c1ccc2c(c1)OCO2 (centres undefined) | 31 µM | –
39 | COc1ccc(C2COc3c(ccc(O)c3C)C2)cc1OC (centres undefined) | > 200 µM | –
40 | COc1ccc(/C(Cl)=C(\C#N)c2ccc(OC)c(OC)c2)cc1OC | > 100 µM | –
41 | Oc1c(Br)ccc2cccnc12 | > 100 µM | –
42 | COc1ccc(/C=N/N=C(\N)NO)c(OC)c1C | > 100 µM | –

Row | Structure (SMILES) | TGI | GI50 [µM]
43 | CS(=O)(=O)N1CC(CCl)c2ccc(O)cc21 (centres undefined) | 25.6 µM | –
44 | COc1ccc(-c2noc(N)c2-c2cc(OC)c3c(c2)OCO3)cc1 | > 100 µM | 6
45 | COc1ccc(CNc2nc(NC3CCCCC3)nc(NC3CCCCC3)n2)cc1 | > 100 µM | –
46 | C=C1CCCCCCCCC/C=C/1SCCCSC | > 100 µM | –
47 | CC1(C)OP(=O)(O)C=C1Sc1ccc([N+](=O)[O-])cc1[N+](=O)[O-] | > 100 µM | –
48 | CCOC(=O)CCC(NC(=O)OCc1ccccc1)C(=O)NC(CCC(=O)OCC)C(=O)OCC (centres undefined) (Cbz-Glu(OEt)-Glu(OEt)-OEt; configuration not given here) | > 100 µM | –
49 | NC(=O)c1cn(Cc2ccccc2)c(=O)n1Cc1ccccc1 | > 100 µM | –
50 | CCCCC1Cc2cc(O)ccc2-c2nc3cc(O)ccc3n21 (centres undefined) (tested in a mixture with another compound) | 78.7 µM | –
51 | COc1cc2nc(-c3cccs3)nc(Cl)c2cc1OC | > 100 µM | –
52 | O=C(Cn1c2ccc(Br)cc2c2nc3ccccc3nc21)NNC(=S)NC1CCCCC1 | 67 µM | –
53 | NCCCOc1cc(Cl)ccc1NC(=O)c1cc2ccccc2cc1OCCCN | 2.89 µM | 1.39
54 | COc1ccc2nc(-c3ccccc3)c(=O)[nH]c2c1 | > 100 µM | –
55 | CS(=O)(=O)CS(=O)(=O)OCCCl | 1030 µM | –
56 | CSc1ccc2c(cc1=O)[C@@H](NC(=O)c1cc(O)c(O)c(O)c1)CCc1cc(O)c(O)c(O)c1-2 | 35.9 µM | –
57 | COC(=O)c1c[nH]cc1CCCCc1c[nH]cc1C(=O)OC | > 100 µM | –
58 | O=C1/C(=C\c2cccc(Oc3ccccc3)c2)S(=O)(=O)C(c2ccccc2)N1c1cccc(Cl)c1 (centres undefined) | > 100 µM | –
59 | c1ccc2c(c1)Nc1cccc3c1c-2nc1ccccc13 | 2.42 µM | –
60 | CC(=O)O[C@@]12CO[C@@H]1CC(O)[C@@]1(C)C(=O)[C@H](O)C3=C(C)C(O)C[C@@](O)(C(OC(=O)c4ccccc4)C12)C3(C)C (some centres undefined) | > 100 µM | –
61 | CCOC(=O)CCC(NC(=O)C(Cc1ccccc1)NC(=O)OCc1ccccc1)C(=O)OCC (stereo not drawn) (Cbz-Phe-Glu(OEt)-OEt; configuration not given here) | 31.3 µM | –
62 | O=C(NC1CCCCC1)c1ccc(Nc2ncnc3c2cnn3-c2ccccc2)cc1 | > 100 µM | 15.8
